Laboratory results reported in the RNAGym collection of RNA variant scans (doi:10.7554/elife.90254).
The source gives no read counts; variants with many changes may rest on few reads.

B1: LINE1-mini (parent)
chain: GGCAGAGCUCAACACAGCGUGGCAAAGUGGCUGUGGCUAGACUGCC

Variants of: B1
Experiment: self-cleavage, relative activity (ratio to wild type); higher = more cleavage; in vitro, sequencing; the parent is a self-cleaving ribozyme

Row | Variant | self-cleavage
1 | GGUAGAGCUCAACACAGCGUCGCAAGGUGUCUGUGGCUAGACUGCC [C3U G21C A26G G30U] | 0.05
2 | GGUAGAGCUCAACACAGCGUGGCAAAGUGGCUGUGAUUAGACUGCC [C3U G36A C37U] | 0.06
3 | GGUAUAGCUUAACACAGCGAGGCAAAGUGGCUGUGGCUAGACUGCC [C3U G5U C10U U20A] | 0.01
4 | GGUAGAGCCCAACACAGCGUGGAAAAGUGGCUGUGGCUAGACUGCC [C3U U9C C23A] | 0.02
5 | GGUAGAGCCCAACACAGCGUGGCAAAGUGACUGUGGCUAGACUGCC [C3U U9C G30A] | 0.01
6 | GGUAGAGCUCAACACAGCGUGGCAAAGUGGCAUUGGCUGGACUGCC [C3U U32A G33U A39G] | 0.03
7 | GGUAGACCUCAACAGAGCGUGGCAAAGUGGCUGUGUCUAGACAGCC [C3U G7C C15G G36U U43A] | 0
8 | GGCCGAGCUCCACACAGCGUGGCUAAGUGGGUGUGGCUAGACUGCC [A4C A11C A24U C31G] | 0.02
9 | GGUAGAGCUCAACACAGCGUGGCAAAGCGGCUGUGGAUAGAUUGCC [C3U U28C C37A C42U] | 0.08
10 | GGUAGAGCUCAACACAUCGUGGCGAAGUGGCUGUGGCUAGACUGCC [C3U G17U A24G] | 0.04
11 | GGUAGAGCUCAACACAGCCUGGUAAAGUGGCUGUGGCUAGACUGCC [C3U G19C C23U] | 0.14
12 | GGUAGAGCUCAACACAGCGCGGCACAGUGGCUGUGGCUAUACUGCC [C3U U20C A25C G40U] | 0.04
13 | GGCCGUGCUCAACACAGCCUGGCAAAGUGGCUGUGGCUAGACUGCC [A4C A6U G19C] | 0.06
14 | GGUACAGCUCAACACAGCUUGGCCGUGUGGCUGUGGCUAGACUGCC [C3U G5C G19U A24C A25G A26U] | 0.02
15 | GGUAGAGCUCAACACAGCGUGGCAAAGAGGGUGUGGCUAUACUGCC [C3U U28A C31G G40U] | 0.02
16 | GGUAGAGCACAACACAGCGUCGCAAAGUGGCUGUGGAUAGACUGCC [C3U U9A G21C C37A] | 0.1
17 | GGUAGAGCUCAACACAGCGUUGCGAAGCGGCUGUGGCUAGACUGCC [C3U G21U A24G U28C] | 0.1
18 | GGUAGAGCCCAACAUGUAGUGGCAAAGUGACUGUGGCUAGACUGCC [C3U U9C C15U A16G G17U C18A G30A] | 0.03
19 | GGUAGAGCUCAACACAGCGUGGCAAAGUGUCUAUGGCUAGACUACC [C3U G30U G33A G44A] | 0.04

Row | Variant | self-cleavage
20 | GGUAGAACUCAACACAGCGUGGCAACGUGACUGUGGCUAGACUGCC [C3U G7A A26C G30A] | 0.17
21 | GGUAGAGCACAACACAGCCUGGCUAAGUGGCUGUGGCUAGACUGCC [C3U U9A G19C A24U] | 0.13
22 | GGUAGAGCUCAACACAGCGUGGCAAAGUGGCUGUGGCUAGACUCUC [C3U G44C C45U] | 0.08
23 | GGUAGAGCUCAACACAGCGUGGCAAAGUGGCUGUGCCUAUACUGCA [C3U G36C G40U C46A] | 0.31
24 | GGUAGACCUAAACACUGCAUGGCAAAGUGGCUGUGGCAUGACUGCC [C3U G7C C10A A16U G19A U38A A39U] | 0.02
25 | GGUAGAACUCAACACAGCGUGGCAAACUGGCUGUGGCUAUACGGCC [C3U G7A G27C G40U U43G] | 0.17
26 | GGUAGAGCUCAACACAGCGCGGCAAAGUGACUGUGGCUAGACUGCC [C3U U20C G30A] | 0.29
27 | GGUAGAGCUCAACACACCGUGGCUAAGUGCCUGUGGCUAUACUGUC [C3U G17C A24U G30C G40U C45U] | 0.02
28 | GGUAGACCUCAACACAGCGUGGCAAAGUAGCUGUGGCUAGAGUGCA [C3U G7C G29A C42G C46A] | 0.05
29 | GGUAUAGCUCAACACAGCGAGGCAAAGUGGCUGGGGUUAGACUGCC [C3U G5U U20A U34G C37U] | 0.02
30 | GGUAGAGCUCAACACAGCGUGGCAAAAUGGCUGUGGCUAGACCGCC [C3U G27A U43C] | 0.07
31 | GGUAGAGCUCAACACAGCGUGGCAAAUUGGCUGUGGCAAGACUGCC [C3U G27U U38A] | 0.18
32 | GGUAGAGCUCAACACAGCGUCGCAAAGUCGCUAUGGCUAGACUGAC [C3U G21C G29C G33A C45A] | 0.03
33 | GGUAGAGCUCAACACAUCGUGGCAAAGUGGCUGUGGCUAGACUACC [C3U G17U G44A] | 0.14
34 | GGUAGAGCUCAACACAGCGUGGCAAAUUGGCUCUGGAUUGACUGCC [C3U G27U G33C C37A A39U] | 0.11
35 | GGUAGAUCUCAACACCGCGUGGCAAAGUGCCUGUGGCUAGACUGCC [C3U G7U A16C G30C] | 0.12
36 | GGUAGAUCUCAACACAGCAUGGCAAAGUGGCUGUGGCUAGACUGCC [C3U G7U G19A] | 1.09
37 | GGUAGAGCACGACACAGCGUGGAAAAGUGGCUGUGGCUAGACUGCC [C3U U9A A11G C23A] | 0.04
38 | GGUAGAGCUCAACACAGCGUGGCAAACUAGCUGUGGCUAGACUGCC [C3U G27C G29A] | 0.08

Row | Variant | self-cleavage
39 | GGUAGAGCCGAACACAGCGUGGCAAAGUGGCCGUGGCUAGACUGUC [C3U U9C C10G U32C C45U] | 0.08
40 | GGUAGAGCUCAACACAGCGUGGCAAAUUGGCGGUGGCUAGACUGCC [C3U G27U U32G] | 0.15
41 | GGUAGAGCACAACACAGCGUGGCAAAGUGGCUGUGGCUAUACUGCC [C3U U9A G40U] | 0.01
42 | GGUAGAGCUCAACACAUCGUUGCAAAGUGGCUGUGGCUAGGCUGCC [C3U G17U G21U A41G] | 0.05
43 | GGUAGAGCUCAACACAGCGUGACAAAGUGGCUGUGGCUAGAUUGCC [C3U G22A C42U] | 0.29
44 | GGUAGAGCUCAACACAGCGAGGCAAAGUGGCUGUGGCUAGCCUGCG [C3U U20A A41C C46G] | 0.05
45 | GGUAGAGCUCAACACAACGUGGCAGAGUGGCUGUGGCUAGACUGUC [C3U G17A A25G C45U] | 0.03
46 | GGUAGAGCUCAACACAGCGUGGCAAAGUGGCUGAGGCUAGACUGUC [C3U U34A C45U] | 0.03
47 | GGUAGAGCUCAACACAGCGUGGCAAAGUGGCGGUCCCUAGACUGCC [C3U U32G G35C G36C] | 0.06
48 | GGUAGAGCUCAACACAUGGUGGCAAAGUGGCUUUGGCUAGACUGAC [C3U G17U C18G G33U C45A] | 0.12
49 | GGUAUAGCUCAACACAGCGUGGCAAAGUAGCUGUGGCCAGACUGCC [C3U G5U G29A U38C] | 0.06
50 | GGUACAGCUCAACACAGCCUGGCAAAGUGGCUGUGGCUAGAAUGCC [C3U G5C G19C C42A] | 0.05
51 | GGUAUAGCUCAACUCAGCGUGGCAAAGUGGCUGUGGCUCGACUGAC [C3U G5U A14U A39C C45A] | 0.07
52 | GGUAGAGCUCAACACAGCGUGGCAAAUUGGCUGGGGCUAAACUGCC [C3U G27U U34G G40A] | 0.03
53 | GGUAUAGCUCAACUGAGCGUGUCAAAGUGGCUGUGGCUAGACUGCC [C3U G5U A14U C15G G22U] | 0.03
54 | GGUAGAGCUCAACACAUCGUGGCAAAGUGACUAUGGCUGGACUGCC [C3U G17U G30A G33A A39G] | 0.14
55 | GGUAGAGCUCAACACAGCGUGGCAAAGUGGCGGUGGAUAGACUGCC [C3U U32G C37A] | 0.11
56 | GGUAGAGCUCAACACAGCAUGGCAAAGUGGCUUUGGCUAGACUGCC [C3U G19A G33U] | 0.13
